Measurements: PubChem BioAssay AID1477 (National Center for Advancing Translational Sciences (NCATS), 2009)
In all, about 230,000 compounds went through this assay and fewer than 10 were called active. This list was built around the results that the source calls inconclusive (neither active nor inactive); the mix of calls is not that of the screen. The call rests on the fitted dose curve; in most records, active means well fitted curve in the direction sought with a large enough effect; inconclusive means small, poorly fitted or top-dose-only effect, or effect the other way, or another doubt; inactive means no such curve, though single readings can be large or run the other way. No potency is given beside an inconclusive call; the fits are too rough.

Molecular target: Runt-related transcription factor 1 (Homo sapiens) + Core-binding factor subunit beta (Homo sapiens) (UniProt Q01196+Q13951)
Sequence of UniProt Q01196 (Q01196 whole entry, looked up): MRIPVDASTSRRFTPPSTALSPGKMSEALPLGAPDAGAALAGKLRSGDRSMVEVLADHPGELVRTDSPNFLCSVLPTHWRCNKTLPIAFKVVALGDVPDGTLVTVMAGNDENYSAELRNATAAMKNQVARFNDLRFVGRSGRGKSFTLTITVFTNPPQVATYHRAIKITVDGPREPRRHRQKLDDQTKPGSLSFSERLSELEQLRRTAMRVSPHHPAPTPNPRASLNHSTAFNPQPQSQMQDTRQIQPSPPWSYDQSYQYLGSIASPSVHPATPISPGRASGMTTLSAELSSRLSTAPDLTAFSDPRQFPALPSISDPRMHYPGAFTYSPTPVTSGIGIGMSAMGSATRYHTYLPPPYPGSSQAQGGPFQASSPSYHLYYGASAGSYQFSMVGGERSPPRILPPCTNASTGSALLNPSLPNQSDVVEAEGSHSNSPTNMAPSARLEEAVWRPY
Sequence of UniProt Q01196 (Q13951 whole entry, looked up): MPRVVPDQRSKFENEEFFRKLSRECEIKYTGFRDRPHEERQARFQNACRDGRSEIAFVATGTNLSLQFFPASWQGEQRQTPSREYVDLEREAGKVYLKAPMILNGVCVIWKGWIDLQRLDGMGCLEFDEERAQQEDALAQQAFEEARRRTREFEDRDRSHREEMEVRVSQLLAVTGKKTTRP
Assay: qHTS Assay for Compounds Blocking the Interaction Between CBF-beta and RUNX1 for the Treatment of Acute Myeloid Leukemia
Conditions: AlphaScreen CBFb-His/RUNX1-biotin binding, biochemical; series mostly up to 59.8 µM
Excerpt: NIH Chemical Genomics Center [NCGC]
NIH Molecular Libraries Probe Production centers Network [MLPCN]
Assay Submitter (PI): Paul Liu
Core Binding Factor (CBF) abnormalities are associated with 20-25% of all acute myeloid leukemias (AML), of which 5-10% are further sub classified as acute myelomonocytic leukemia with eosinophilia, also known as M4Eo in the FAB classification scheme. This subtype of leukemia is usually associated with chromosome 16 inversion (p13:q22). Chromosome 16 inversion results in formation of the fusion oncogene CBFB-MYH11, which encodes the fusion protein CBF-beta-SMMHC.
It has been hypothesized that the interference of CBF-beta and RUNX1 binding could have therapeutic implications for patients with CBF mediated leukemias. We developed a CBF-beta and RUNX1 binding assay in AlphaScreenTM format and optimized it for high throughput screening to search for inhibitors. The goal of this project is to screen MLPCN's compound collection (MLSMR) for identifying the inhibitors of the interaction between CBF-beta and RUNX1 proteins as research probes. If these probes work well in the animal models, the ultimate goal of this project is to development a new drug treatment for this disease.
This assay can not be used to assess how apparent inhibitors interfere with protein binding, and whether inhibitors specifically bind to either protein. Disruption of this protein-protein interaction, through any mechanism, is the intended target activity.
NCGC Assay Protocol Summary:
Step, Parameter, Description
(1) Reagent, 3 uL CBFb-His/RUNX1-biotin mix incubated together for 20 minutes at room temperature (30 nM each)
(2) Compound or control, 23 nL compound stock solution
(3) Incubation, 15 minutes at Room temperature
(4) Reagent, 1 uL 50 ng each of beads (Nickel beads and streptavidin beads)
(5) Incubation, 90 minutes at Room temperature
(6) Detection, Excitation=365 nm Emission=440 nm, Envision reader in AlphaScreenTM mode
Keywords: MLSMR, MLPCN, NIH Roadmap, qHTS, NCGC, Core binding factor, CBF, CBF-beta, Acute myeloid leukemia

| Structure (SMILES) | Potency |
| --- | --- |
| O=C(CNCCN1CCOCC1)Nc1ccccc1Sc1ccccc1 | inactive |
| CS(=O)(=O)N(CC(=O)N/N=C/c1cc2c(cc1Br)OCO2)c1ccccc1Br | inactive |
| O=C(NCc1ccc(Cl)cc1)c1cc(-c2cccs2)on1 | inconclusive [inhibitor, single point] |
| C#Cc1ccc([C@H]2C=C(C(=O)N3CCN(Cc4ccccc4)CC3)O[C@@H](OCc3ccc(CO)cc3)C2)cc1 | inconclusive [inhibitor, partial curve] |
| C[C@@H]1C(c2ccc(F)cc2)=NN(c2ccc(Br)cc2)[C@H]1C(=O)N1CCOC1=O | inconclusive [activator, partial curve] |
| O=C1c2ccccc2NC(c2ccc(-c3ccc(Br)cc3)o2)N1O (stereo not given) | inactive |
| C/C(=N\NC(=S)Nc1ccccc1C)c1cc2ccccc2o1 | inconclusive [inhibitor, single point] |
| COc1ccc(Nc2nc(-c3sc(N)nc3C)cs2)cc1 | inconclusive [inhibitor, single point] |
| CCOC(=O)c1c(CC(C)C)csc1/N=C/C1C(=O)CCCC1=O | inconclusive [activator, single point] |
| Oc1cccc(/C=N/c2c(-c3ccco3)nc3ccccn23)c1 | inactive |
| COc1cccc(OCCOCCOc2ccc(C)cc2[N+](=O)[O-])c1 | inconclusive [activator, single point] |
| CC(C)Oc1cccc(C(=O)NC(=S)Nc2cccnc2)c1 | inconclusive [inhibitor, single point] |
| O=C(CN1CCCc2ccccc21)Nc1ccccc1[N+](=O)[O-] | inconclusive [inhibitor, single point] |
| CN(C)/C=N/c1c(C#N)cnn1-c1ccc(F)c(Cl)c1 | inconclusive [activator, partial curve] |
| CCC(C)(C)OC | inactive |
| CC(C)(C)c1ccccc1OCCCCCNCCO | inactive |
| O=C(Nc1ccc(Cl)cc1)c1csc(Cc2ccccc2)n1 | inconclusive [activator, partial curve] |
| CCOc1ccc(N(CC(=O)Nc2cccc(C)c2C)S(=O)(=O)c2c(C)[nH]c(=O)[nH]c2=O)cc1 | inactive |
| CCN=c1scc(-c2ccccc2)n1/N=C/c1ccccn1 | inconclusive [inhibitor, partial curve] |
| O=C1CN(C(=O)COC(=O)c2ccc(N3CCCCCC3)c([N+](=O)[O-])c2)c2ccccc2N1 | inconclusive [inhibitor, single point] |
